According to the supplement of paper PMC3334620:
In all, about 33,000 sequences were measured (“E-score (-0.5 to 0.5)”: median about -0.054, highest 2% from about 0.39 on). The list shows a part of the results.

Biological target: Ylr278c (UniProt Q05854)
Test: PBM E-score (8-mer binding enrichment) (E-score (-0.5 to 0.5)); higher = stronger / more preferred TF binding; most listed sequences are background and not binding sites
Conditions: protein concentration: 200 nM; construct: GST-DNA-binding domain
Experimental: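 Universal 'all 10-mer' protein binding microarrays (Agilent AMADID 015681) probed with GST-tagged S. cerevisiae TFs (full-length or DBD) made by in vitro transcription/translation (PURExpress), about 100-200 nM. Bound TF was detected with fluorescent anti-GST. Each ungapped 8-mer (which stands for itself and its reverse complement) is scored by the PBM enrichment score (E-score), a modified Wilcoxon-Mann-Whitney statistic from -0.5 to +0.5, computed with the Universal PBM Analysis Suite. Scale: above 0.35 generally sequence-specific binding.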

| Sequence | PBM E-score |
| --- | --- |
| ATACACGC | 0.0739 |
| GAAACTAA | -0.124 |
| GCTATGAA | -0.12 |
| AACACAAT | -0.152 |
| ATTGTACG | -0.242 |
| GTCCAGTA | -0.16 |
| ACTTCACC | 0.144 |
| AGCTTATA | -0.123 |
| CCCTGAGC | 0.1 |
| CATTGGAA | -0.0814 |
| ACCATCAG | -0.0879 |
| CGGGGGAC | 0.218 |
| CAAAGTAG | -0.238 |
| AATCTCCA | -0.0603 |
| ACTATAGG | -0.264 |
| GACTTCTA | -0.106 |
| AGGCAGAC | -0.171 |
| ACTCGACT | -0.298 |
| CCTGAACA | -0.182 |
| GAGCCCAC | 0.0305 |
| ACGGTGGA | -0.143 |
| CCTAAGTC | -0.0846 |

| Sequence | PBM E-score |
| --- | --- |
| AGTGAAAT | -0.095 |
| CTGGCCTC | 0.0338 |
| CCTCTAAG | -0.263 |
| GGGCGTAA | 0.0712 |
| AGGAGTTC | 0.109 |
| AACTTCAG | -0.108 |
| AAGTGTAC | -0.275 |
| GGTTGAAA | 0.0153 |
| GTGATTGA | 0.0007 |
| CGCAAACC | 0.00999 |
| AAGGAAGA | -0.137 |
| ACCTGCTG | -0.00776 |
| AAACCCGA | 0.384 |
| AGGCATGC | -0.0463 |
| CGCGAGAC | -0.0996 |
| CCCATGTA | -0.114 |
| GAGATAGA | -0.0983 |
| TCCATGGA | 0.0366 |
| GGCCTCTA | -0.294 |
| TAGTGTAA | -0.0583 |
| TATGCCCA | -0.277 |
| AAATGCAC | 0.145 |

| Sequence | PBM E-score |
| --- | --- |
| ATCAAGTG | -0.0482 |
| CCATATTA | -0.133 |
| GTCGGGAA | 0.201 |
| CCCCCGTA | -0.173 |
| CTACTGAA | -0.145 |
| TACTTCAA | -0.0168 |
| CGGGCAAG | 0.205 |
| CCTACCTC | -0.0324 |
| CTATATTA | -0.00907 |
| ATGACCCA | -0.23 |
| CCCATAGC | -0.147 |
| CCAAATTC | -0.148 |
| ATTGTAGG | -0.0526 |
| CCCTGGAG | -0.268 |
| AGGGGACA | -0.182 |
| ATACGTAC | -0.246 |
| ATTACAGA | -0.0614 |
| AAGAAGTG | -0.0791 |
| CGTTCATC | 0.02 |
| CAAGGTAC | -0.202 |
| CATGTCTC | -0.00706 |
| CAACGTAA | -0.175 |

| Sequence | PBM E-score |
| --- | --- |
| ATAATTGC | -0.0388 |
| CGATAAGA | 0.108 |
| CGTCTGAG | -0.0235 |
| GGTGGCAA | -0.156 |
| AGAGTTGG | -0.115 |
| CTAAACCA | -0.0227 |
| ATATCATC | -0.0863 |
| ACGGATTA | 0.205 |
| AATGTGAA | -0.116 |
| ACTGCGCT | -0.183 |
| TCGTACCA | -0.0827 |
| CCAGTCTC | -0.18 |
| CCACCACG | -0.0578 |
| GCCAAGCC | 0.0558 |
| AACCTCAC | -0.238 |
| CCTAGAAG | -0.246 |
| CTGAATTC | -0.0397 |
| ACTCTGGA | -0.117 |
| AGGCTTCA | -0.0672 |
| ATGTTCCA | -0.162 |
